Source: the supplement of paper PMC12217912
The other results are listed elsewhere or left out. The full chains were built here from the parent and the listed change. Values near 0.05 are background.

B1: TEV protease; numbered along this chain (parent)
chain: MGESLFKGPRDYNPISSSICHLTNESDGHTTSLYGIGFGPFIITNKHLFRRNNGTLVVQSLHGVFKVKDTTTLQQHLVDGRDMIIIRMPKDFPPFPQKLKFREPQREERICLVTTNFQTKSMSSMVSDTSCTFPSGDGIFWKHWIQTKDGQCGSPLVSTRDGFIVGIHSASNFTNTNNYFTSVPKNFMELLTNQEAQQWVSGWRLNADSVLWGGHKVFMVKPEEPFQPVKEATQL

Variants of: B1
Test: raw area under fraction-flipped curve 0-4 h after induction (AUC4h, not background-subtracted), DNA-recorder readout of cleavage of the substrate (dimensionless); higher = more cleavage of the substrate by the protease variant
Settings: temperature: 34 °C; time window: 0-4 h after rhamnose induction
Method: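 In vivo DNA recorder in E. coli TOP10(DE3) ΔrhaA at 34 °C. Each TEVp single-site mutant (parent TEVp 0) is paired with a single-site variant of the 7-mer TEVs (canonical ENLYFQ|S). The substrate sits between flexible linkers in a Bxb1-sfGFP-TEVs-SsrA fusion, so cleavage stabilises Bxb1 and speeds flipping of a recombination array, read by NGS. The value is the raw area under the fraction-flipped curve over 0-4 h after rhamnose induction (AUC4h), with ≥20 reads per time point. It is not background-subtracted; inactive controls average about 0.047.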
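Note: Bxb1 expression induced with 0.2% (w/v) L-rhamnose at OD600 near 0.5, cultures sampled hourly, flipped fraction per protease–substrate barcode pair counted by paired-end Illumina sequencing.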

Row | Variant | area with substrate ENLYFAS | area with substrate ENLYFCS | area with substrate ENLYFDS | area with substrate ENLYFFS | area with substrate ENLYFGS | area with substrate ENLYFIS | area with substrate ENLYFKS | area with substrate ENLYFLS | area with substrate ENLYFMS | area with substrate ENLYFNS | area with substrate ENLYFRS | area with substrate ENLYFTS | area with substrate ENLYFWS | area with substrate ENLYFYS | area with substrate ENLYFES | area with substrate ENLYFHS | area with substrate ENLYFPS | area with substrate ENLYFSS | area with substrate ENLYFVS
1 | MGESLFKGPRDYNPISSSICHLTNESDGHTTSLYGIGFGPFIITNKHLFRRNNGTLVVQSLHGVFKVKDTTTLQQHLVDGRDMIIIRMPKDFPPFPQKLKFREPQREERICLVTTNFQTKSMSSMVSDTSCTFPSGDGIFWKHWIQTKDGQCGSPLVSTRDGFIVGIHSASNFTNTNNYFTSVPKNFMELLTNQEAQQWVSGWRLNADSVLWGGHKVFMVKPEEPFQVVKEATQL [P228V] | 0.059 | 0.0373 | 0.063 | 0.0662 | 0.0385 | 0.0575 | 0.0562 | 0.044 | 0.0607 | 0.068 | 0.055 | 0.0519 | 0.0549 | 0.0639 |  |  |  |  | 
2 | MGESLFKGPRDYNPISSSICHLTNESDGHTTSLYGIGFGPFIITNKHLFRRNNGTLVVQSLHGVFKVKDTTTLQQHLVDGRDMIIIRMPKDFPPFPQKLKFREPQREERICLVTTNFQTKSMSSMVSDTSCTFPSGDGIFWKHWIQTKDGQCGSPLVSTRDGFIVGIHSASNFTNTNNYFTSVPKNFMELLTNQEAQQWVSGWRLNADSVLWGGHKVFMVKPEEPFQHVKEATQL [P228H] | 0.0668 |  | 0.0632 | 0.0732 | 0.0618 | 0.0523 | 0.0587 |  | 0.0631 |  | 0.0503 | 0.0533 | 0.0531 |  | 0.0695 | 0.0534 | 0.0609 | 0.0571 | 0.058
3 | MGESLFKGPRDYNPISSSICHLTNESDGHTTSLYGIGFGPFIITNKHLFRRNNGTLVVQSLHGVFKVKDTTTLQQHLVDGRDMIIIRMPKDFPPFPQKLKFREPQREERICLVTTNFQTKSMSSMVSDTSCTFPSGDGIFWKHWIQTKDGQCGSPLVSTRDGFIVGIHSASNFTNTNNYFTSVPKNFMELLTNQEAQQWVSGWRLNADSVLWGGHKVFMVKPEEPFQQVKEATQL [P228Q] | 0.0652 |  |  | 0.0569 | 0.0617 | 0.0565 | 0.0623 |  | 0.0661 | 0.0639 | 0.0643 | 0.0659 |  |  | 0.076 | 0.0655 | 0.053 |  | 0.0615
4 | MGESLFKGPRDYNPISSSICHLTNESDGHTTSLYGIGFGPFIITNKHLFRRNNGTLVVQSLHGVFKVKDTTTLQQHLVDGRDMIIIRMPKDFPPFPQKLKFREPQREERICLVTTNFQTKSMSSMVSDTSCTFPSGDGIFWKHWIQTKDGQCGSPLVSTRDGFIVGIHSASNFTNTNNYFTSVPKNFMELLTNQEAQQWVSGWRLNADSVLWLGHKVFMVKPEEPFQPVKEATQL [G213L] | 0.0643 | 0.0208 |  | 0.0652 |  | 0.0534 |  |  | 0.0593 | 0.0509 |  |  | 0.0459 | 0.0511 |  | 0.0755 | 0.057 | 0.058 | 0.0648
5 | MGESLFKGPRDYNPISSSICHLTNESDGHTTSLYGIGFGPFIITNKHLFRRNNGTLVVQSLHGVFKVKDTTTLQQHLVDGRDMIIIRMPKDFPPFPQKLKFREPQREERICLVTTNFQTKSMSSMVSDTSCTFPSGDGIFWKHWIQTKDGQCGSPLVSTRDGFIVGIHSASNFTNTNNYFTSVPKNFMELLTNQEAQQWVSGWRLNADSVLWGGHKVFMNKPEEPFQPVKEATQL [V220N] | 0.0512 | 0.0531 |  | 0.0676 | 0.0865 | 0.047 |  | 0.0537 | 0.069 |  | 0.0565 |  |  | 0.0603 |  |  | 0.0495 |  | 
6 | MGESLFKGPRDYNPISSSICHLTNESDGHTTSLYGIGFGPFIITNKHLFRRNNGTLVVQSLHGVFKVKDTTTLQQHLVDGRDMIIIRMPKDFPPFPQKLKFREPQREERICLVTTNFQTKSMSSMVSDTSCTFPSGDGIFWKHWIQTKDGQCGSPLVSTRDGFIVGIHSASNFTNTNNYFTSVPKNFMELLTNQEAQQWVSGWRLNADSVLWGGHKVFMCKPEEPFQPVKEATQL [V220C] | 0.0335 | 0.0837 | 0.0568 | 0.0538 |  | 0.0658 | 0.0588 | 0.057 | 0.0771 |  | 0.0607 | 0.0569 | 0.0564 |  | 0.0754 |  | 0.0379 | 0.0578 | 0.0523
7 | MGESLFKGPRDYNPISSSICHLTNESDGHTTSLYGIGFGPFIITNKHLFRRNNGTLVVQSLHGVFKVKDTTTLQQHLVDGRDMIIIRMPKDFPPFPQKLKFREPQREERICLVTTNFQTKSMSSMVSDTSCTFPSGDGIFWKHWIQTKDGQCGSPLVSTRDGFIVGIHSASNFTNTNNYFTSVPKNFMELLTNQEAQQWVSGWRLNADSVLWGGHKVFMDKPEEPFQPVKEATQL [V220D] | 0.0441 |  |  | 0.0599 |  | 0.05 |  |  | 0.0715 | 0.0734 |  | 0.057 | 0.06 |  | 0.0494 | 0.0599 | 0.0704 | 0.0564 | 0.0502
8 | MGESLFKGPRDYNPISSSICHLTNESDGHTTSLYGIGFGPFIITNKHLFRRNNGTLVVQSLHGVFKVKDTTTLQQHLVDGRDMIIIRMPKDFPPFPQKLKFREPQREERICLVTTNFQTKSMSSMVSDTSCTFPSGDGIFWKHWIQTKDGQCGSPLVSTRDGFIVGIHSASNFTNTNNYFTSVPKNFMELLTNQEAQQWVSGWRLNADSVLWGGHKVFMVKPEEPFSPVKEATQL [Q227S] | 0.0587 | 0.0532 |  | 0.0579 |  | 0.0584 |  |  | 0.0601 |  | 0.0671 | 0.078 | 0.0612 | 0.0581 | 0.0615 |  | 0.0655 | 0.0522 | 
9 | MGESLFKGPRDYNPISSSICHLTNESDGHTTSLYGIGFGPFIITNKHLFRRNNGTLVVQSLHGVFKVKDTTTLQQHLVDGRDMIIIRMPKDFPPFPQKLKFREPQREERICLVTTNFQTKSMSSMVSDTSCTFPSGDGIFWKHWIQTKDGQCGSPLVSTRDGFIVGIHSASNFTNTNNYFTSVPKNFMELLTNQEAQQWVSGWRLNADSVLWGGHKVFMVKPMEPFQPVKEATQL [E223M] | 0.0563 |  | 0.0651 |  |  | 0.0532 | 0.0626 | 0.0589 | 0.0675 | 0.0445 |  |  | 0.0417 | 0.0652 | 0.0676 |  |  | 0.0442 | 
